# The supplement of paper PMC9663587
# Experiments:
# MFH-2-90 [1] = compound: T1, C=CC(=O)Nc1ccc(C(=O)N2CCC[C@@H](Nc3ncc(SCc4ncc(C(C)(C)C)o4)s3)C2)cc1 [MFH-2-90] (max 0.1 µM); experiment: GRmax, 72 h; higher = less effect;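 note: breast cell lines in 384-well plates, nine doses across a 10^4 range, Dye Drop imaging of viable cells vs DMSO and time-zero plates, GR 0 means no net growth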
# MFH-2-90 [2] = compound: T2, C=CC(=O)Nc1ccc(C(=O)N2CCC[C@@H](Nc3ncc(SCc4ncc(C(C)(C)C)o4)s3)C2)cc1 [MFH-2-90]
# MFH-2-90 [3] = compound: T1, MFH-2-90; experiment: area over the GR curve, 72 h; higher = more effect;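 note: Dye Drop or Deep Dye Drop imaging of viable cells in 384-well plates (Hoechst nuclei, LIVE/DEAD dye), nine half-log doses, GR normalized to DMSO controls and time-zero plates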
# MFH-2-90 [4] = compound: T2, MFH-2-90; experiment: GR value, 72 h; higher = faster growth (1 = untreated, <0 = killing);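 note: breast cancer and non-malignant breast epithelial lines, nine half-log doses, viable cells counted by Hoechst and LIVE/DEAD dye imaging versus time-zero plates and DMSO controls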
# MFH-2-90 [5] = compound: T2, MFH-2-90; experiment: increase in dead-cell fraction, 72 h; higher = more death;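 note: breast cancer cell lines in 384-well plates, stained with Hoechst plus LIVE/DEAD far red dye and imaged, cells above an LDR intensity threshold counted dead, Hoechst-negative corpses included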
# 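Throughout, for GR50, 72 h: breast cancer and non-malignant breast epithelial cell lines, Deep Dye Drop or Dye Drop imaging, nine half-log doses, GR normalized to time-zero plates and DMSO-only controls.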
Cell Line,"GRmax, 72 h (MFH-2-90 [1]) [GR]","GR50, 72 h (MFH-2-90 [2]) [µM]",area over the GR curve (MFH-2-90 [3]) [GR],also measured
ZR751,-0.311,0.00169,0.63,–
BT20,-0.618,< 1e-05,1.54,–
SKBR3,-0.632,0.00047,0.796,–
SUM185PE,0.222,0.0255,0.0973,–
CAL120,-0.0598,0.000482,0.633,–
MDAMB175VII,-0.317,0.0269,0.201,–
MDAMB468,-0.225,0.000606,0.689,–
EVSAT,0.991,> 0.1,-0.0068,–
AU565,-0.532,0.000497,0.865,GR value (MFH-2-90 [4]; 10 pM): 0.94 GR; GR value (MFH-2-90 [4]; 31.6 pM): 0.852 GR; GR value (MFH-2-90 [4]; 0.0001 µM): 0.995 GR; GR value (MFH-2-90 [4]; 0.0003162 µM): 0.969 GR; GR value (MFH-2-90 [4]; 0.001 µM): -0.416 GR; GR value (MFH-2-90 [4]; 0.003162 µM): -0.433 GR; GR value (MFH-2-90 [4]; 0.01 µM): -0.469 GR; GR value (MFH-2-90 [4]; 0.03162 µM): -0.544 GR; GR value (MFH-2-90 [4]; 0.1 µM): -0.495 GR; increase in dead-cell fraction (MFH-2-90 [5]; 10 pM): -0.0031; increase in dead-cell fraction (MFH-2-90 [5]; 31.6 pM): 0.006; increase in dead-cell fraction (MFH-2-90 [5]; 0.0001 µM): -0.0085; increase in dead-cell fraction (MFH-2-90 [5]; 0.0003162 µM): -0.0034; increase in dead-cell fraction (MFH-2-90 [5]; 0.001 µM): 0.448; increase in dead-cell fraction (MFH-2-90 [5]; 0.003162 µM): 0.404; increase in dead-cell fraction (MFH-2-90 [5]; 0.01 µM): 0.404; increase in dead-cell fraction (MFH-2-90 [5]; 0.03162 µM): 0.431; increase in dead-cell fraction (MFH-2-90 [5]; 0.1 µM): 0.407
MDAMB330,0.743,> 0.1,0.0453,–
MGH312,-0.933,–,1.91,–
CAL851,-0.176,0.000529,0.657,–
MCF12A,-0.147,0.00108,0.219,–
BT474,-0.719,0.0388,0.167,–
SUM190PT,-0.492,0.00411,0.439,–
HCC1395,-0.535,0.000579,0.869,–
HCC1954,-0.454,0.000255,1.42,–
MDAMB453,-0.225,0.000457,0.742,–
MCF10A (GM),-0.259,0.000537,0.7,–
SUM44PE,-0.379,0.00246,0.411,–
HCC1187,-0.865,–,-0.284,–
EFM19,-0.292,0.00107,0.685,–
HTERT_HME1,-0.206,0.000505,0.691,–
UACC812,-0.835,0.0511,0.0206,–
MCF7,-0.312,–,1.35,–
HCC1937,-0.208,0.000485,0.705,–
SUM52PE,-0.149,0.0265,0.144,–
MDAMB436,-0.0612,0.000572,0.573,–

Cell Line,"GRmax, 72 h (MFH-2-90 [1]) [GR]","GR50, 72 h (MFH-2-90 [2]) [µM]",area over the GR curve (MFH-2-90 [3]) [GR],also measured
HCC70,-0.934,–,1.91,–
MDAMB415,-0.309,0.0588,0.111,–
SUM149,-0.473,0.00046,0.848,–
CAMA1,-0.346,0.000602,0.75,–
HCC38,-0.373,0.000464,0.792,–
MDAMB361,-0.526,0.000731,0.906,–
UACC893,-0.34,0.0538,0.0611,–
SUM159,-0.0591,0.000497,0.623,–
T47D,-0.18,–,1.18,–
PDXHCI002,-0.247,0.0427,0.0539,–
HCC1569,-0.118,0.0372,0.0151,–
MCF10A,-0.508,–,1.55,–
PDX1258,-0.584,0.0239,0.158,–
ZR7530,-0.43,0.0398,0.136,–
HCC1143,-0.301,0.000503,0.721,–
MDAMB231,-0.333,–,1.29,–
PDX1206,-0.342,0.0373,0.0637,–
HS578T,-0.273,–,1.21,–
184A1,-0.321,0.0107,0.323,–
BT549,-0.334,0.000696,1.37,–
SUM1315,-0.838,0.000486,0.815,–
HCC1806,-0.492,–,1.49,–
CAL51,-0.146,0.00259,0.442,–
PDX1328,-0.0127,0.0406,0.152,–
HCC1419,-0.348,0.000773,0.697,–
SUM229PE,-0.111,0.0223,0.166,–
HCC202,0.0812,0.0307,0.209,–
